Source: PubChem BioAssay AID686971 (National Center for Advancing Translational Sciences (NCATS), 2013)
Hit rate of the full screen: of about 360,000 compounds, about 7,500 (2.1%) were called active. Inconclusive results, whose numbers are uncertain, are shown with a selection of clear calls. Calls come from the whole dose curve; as a rule, active = well fitted cell-killing curve with a large enough effect; inconclusive = small, poorly fitted or top-dose-only effect, or effect the other way, or another doubt; inactive = no such curve, though single readings can be large or run the other way. No potency is given beside an inconclusive call; the fits are too rough.

experiment: qHTS for induction of synthetic lethality in tumor cells producing 2HG: qHTS for the HT-1080-IDH1KD cell line; conditions: HT-1080 IDH1 knockdown viability, ATP luminescence, 48 h; activity, negative = toxicity: at 46.1 µM (top of the series) unless noted;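 for activity, negative = toxicity: 0% = DMSO wells and -100% = cell-free medium wells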
Procedure, shortened: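 Using the IDH1-knockdown HT-1080 line run in the same batch and compound series as the NT line, viability after 48 h at 37 °C was determined by CellTiter-Glo luminescence and expressed as % activity.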
Potency is the fitted concentration of half-maximal effect; tags give direction and shape of the fitted curve.

SMILES | Potency | activity, negative = toxicity
Cc1noc(C)c1COC(=O)c1ccc(F)c(S(=O)(=O)N2CCOCC2)c1 | inactive | –
Cc1ccc(-c2csc(C3=C(O)CN(NC(=O)c4ccco4)C3=N)n2)cc1 | inactive | –
c1cncc(-c2nn3c(Cn4cnc5ccccc54)nnc3s2)c1 | – | inconclusive: -18.4% [cytotoxic]
O=C(CN1CCN(C2CCCCC2)CC1)Nc1ccccc1-c1ccccc1 | – | inconclusive: -1.22% [cytotoxic]
COc1ccc(NC(=O)c2ccc(NC(=O)C3CC3)cc2)cc1 | inconclusive [cytotoxic, single point] | –
Cc1ccc(-n2ncc(C(=O)NCC3CCN(C4CCCC4)C3)c2C2CCN(C(=O)OC(C)(C)C)CC2)cc1C (stereo unspecified) | inconclusive [cytotoxic, single point] | –
Cc1cccc(NC(=O)c2ccc(S(=O)(=O)N3CCC(C)CC3)cc2)n1 | inconclusive [cytotoxic, single point] | –
O=C(Cn1sc2ccccc2c1=O)Nc1ccc(F)cc1 | inconclusive [cytotoxic, partial curve] | –
O=C(N/C(=C/c1ccccc1Cl)C(=O)N1CCCCC1)c1ccco1 | inactive | –
CCOC(=O)N1CCN(C(=O)c2cn(CC)c3ccc(S(=O)(=O)N4CC(C)CC(C)C4)cc3c2=O)CC1 (stereo unspecified) | inactive | –
Cn1cc(Cl)c(C(=O)Nc2cccc(Cl)c2Cl)n1 | inconclusive [rising, partial curve] | –
Cc1[nH]c2c(C(=O)N3CCCC(CCC(=O)NCc4ccccc4F)C3)cccc2c1C (stereo unspecified) | inconclusive [cytotoxic, single point] | –
CCC(Sc1ccc2nnc(-c3ccc(F)cc3)n2n1)C(=O)O (stereo unspecified) | inactive | –
CC(C)c1ccc(NC(=S)NC2CCN(Cc3ccccc3)CC2)cc1 | inconclusive [cytotoxic, single point] | –
CCc1ccc(NC(=O)C(=O)NCCOc2ccccc2Cl)cc1 | inactive | –
COc1cc(OC)cc(C(=O)Nc2cc(NC(=O)c3ccco3)ccc2OC)c1 | inconclusive [cytotoxic, single point] | –
COC(=O)c1[nH]c2cc(C)ccc2c1NC(=O)CN1CCc2cc(OC)c(OC)cc2C1 | inconclusive [cytotoxic, single point] | –
C=CCn1c(SCc2cc(C(C)=O)ccc2OCC)nc2ccccc2c1=O | active: 2.31 µM | –
Cc1ccc(C)c(N2CCN(C(=O)c3ccc(NS(=O)(=O)c4c(C)noc4C)cc3)CC2)c1 | inconclusive [cytotoxic, single point] | –
CCN(CC)CCNC(=O)c1cc2c(-c3ccc(Cl)cc3)nn(C)c2s1 | active: 18.4 µM | –
CCCCN(C(=O)CSc1nc2ccccc2n1CC)C1CCS(=O)(=O)C1 (stereo unspecified) | inactive | –
CCN(CC)CCCN(C(=O)c1ccc(F)cc1)c1nc(-c2ccc(OC)cc2)cs1 | active: 23.1 µM | –
Cc1ccccc1-c1nc(CS(=O)(=O)CC(=O)NCCCN2CCN(C)CC2)c(C)o1 | inactive | –
COc1ccc(CCN2C(=O)c3ccccc3NC2c2cc(Cl)c(O)c(OC)c2)cc1 (stereo unspecified) | active: 2.91 µM | –

SMILES | Potency | activity, negative = toxicity
O=C(c1cc2c(F)cccc2s1)N1CCCC1 | inactive | –
Cc1cccc(C)c1-n1nnnc1C(C1CC1)N1CCN(C/C=C/c2ccccc2)CC1 (stereo unspecified) | inconclusive [cytotoxic, single point] | –
Cc1ccc(N2C(=O)c3cccc4c(N5CCN(C)CC5)ccc(c34)C2=O)c2cccnc12 | active: 11.2 µM | –
CN1CCN(c2ccc(CNC(=O)C3Cc4c(-c5ccccc5)ccnc4O3)cc2)CC1 (stereo unspecified) | inconclusive [cytotoxic, single point] | –
Cc1nc(NC(=O)/C=C/c2ccco2)sc1C | inconclusive [cytotoxic, partial curve, poor fit] | –
COc1ccc(C(=O)Nc2nnc(CCc3ccccc3)s2)c(OC)c1 | inconclusive [cytotoxic, single point] | –
COc1ccc2[nH]c(C(=O)Nc3ccc4c(c3)OCO4)cc2c1 | inconclusive [cytotoxic, single point] | –
Cc1cc(/C=C(\C#N)C(=O)O)c(C)n1CC(C)C | inconclusive [cytotoxic, full curve] | –
O=C(Oc1ccc(Cl)c2cccnc12)c1cccnc1 | inconclusive [cytotoxic, single point] | –
CCCOc1ccc(Cc2nc(N)nc(N)n2)cc1 | inconclusive [cytotoxic, full curve, poor fit] | –
Cc1ccc(Cl)cc1N1CCN(S(C)(=O)=O)CC1 | inactive | –
COc1cc2c(cc1OC)C(c1ccc3c(c1)OCO3)CC(=O)N2 (stereo unspecified) | inconclusive [cytotoxic, single point] | –
CN(C)S(=O)(=O)c1cccc(C(=O)Nc2ccccc2[N+](=O)[O-])c1 | inconclusive [cytotoxic, single point] | –
CCCCn1c(SCC(=O)NCc2ccco2)nc2c(sc3ccccc32)c1=O | inactive | –
CCn1c(SCC(=O)Nc2ccc(C(=O)OC)cc2)nc2cccnc21 | inconclusive [cytotoxic, single point] | –
CC(C)C1CC(CCNCc2ccc3c(c2)OCO3)(c2ccccc2)CCO1 (stereo unspecified) | active: 25.9 µM | –
FC(F)(F)c1nnc(Nc2ccc(Cl)cc2)s1 | inconclusive [cytotoxic, single point] | –
CC1(C)CC2CC(C)(CN2/C=C2/CCCCC2=O)C1 (stereo unspecified) | inactive | –
COc1cc(/C=C/C(=O)OC2CC3CCC2(C)C3(C)C)ccc1O (stereo unspecified) | inconclusive [cytotoxic, single point] | –
CCc1nnc(N/N=C/c2c(Cl)cccc2Cl)n1N | inconclusive [cytotoxic, single point] | –
O=[N+]([O-])c1ccccc1OCCCOc1cccc2cccnc12 | inconclusive [cytotoxic, single point] | –
CCOc1cc(/C=N/NC(=O)c2cc(-c3ccccc3)nc3ccccc23)ccc1O | – | inconclusive: -30.7% [cytotoxic]
Cn1nnc2c[n+](CC(=O)c3ccc(Cl)cc3)cc(Br)c21 | inconclusive [cytotoxic, single point] | –
CCCCNC(=O)C(C)N(CCN(C)C)C(=O)CCCN1C(=O)NC(c2ccc([N+](=O)[O-])cc2)C(C(=O)OCc2ccccc2)=C1C (stereo unspecified) | inconclusive [cytotoxic, partial curve] | –

SMILES | Potency | activity, negative = toxicity
CCC1CCCCN1C(=O)COc1ccccc1NC(C)=O (stereo unspecified) | inactive | –
CC(C)(C)c1nnc(NC(=O)CCS(=O)(=O)Cc2ccccc2)s1 | inconclusive [cytotoxic, single point] | –
CC(=O)c1sc(N/N=C\c2ccc(N(C)C)cc2)nc1C | inactive | –
Cc1cc(Oc2ccc(-c3ccccc3)cc2)n2ncnc2n1 | inconclusive [cytotoxic, single point] | –
Oc1ccccc1CNc1ncc(Br)cc1Br | inconclusive [cytotoxic, single point] | –
CN1CCN(C(N)=NC(=O)c2ccccc2)CC1 | inactive | –
COC(=O)[C@@]1(Cc2ccc(F)cc2)[C@H]2c3cc(C(=O)N4CCCC4)n(CCc4c[nH]c5ccccc45)c3C[C@H]2CN1C(=O)c1ccccc1 | inconclusive [cytotoxic, full curve] | –
CC(C)(C)c1cc2ncnc(N3CCCCC3)c2s1 | inactive | –
COc1cc2c(cc1NC(=O)c1cccc([N+](=O)[O-])c1C)oc1ccccc12 | inconclusive [cytotoxic, full curve] | –
CC(C)(C)c1cc(C(c2cccnc2)N2CCN(CCO)CC2)cc(C(C)(C)C)c1O (stereo unspecified) | active: 5.01 µM | –
Cc1cccc(N2CCN(C3C(=O)Nc4ccccc4-n4nnnc43)CC2)c1C (stereo unspecified) | active: 10.3 µM | –
CCOC(=O)C1=C(C)Nc2nc3ccccc3n2C1c1cccs1 (stereo unspecified) | inactive | –
CC(=O)Nc1ccc(NC(=O)CSc2nc3c([nH]c4ccccc43)c(=O)n2-c2ccccc2F)cc1 | inconclusive [cytotoxic, partial curve] | –
O=c1c2ccccc2[nH]c(=S)n1CCN1CCN(Cc2ccccc2)CC1 | inconclusive [cytotoxic, single point] | –
C(=C\c1ccccc1)/CN1CCN(C(c2ccccc2)c2nnnn2Cc2ccccc2)CC1 (stereo unspecified) | inconclusive [cytotoxic, single point] | –
COC(=O)C1(C(=O)OC)C/C=C\CN(S(=O)(=O)c2ccccc2[N+](=O)[O-])CCC1 | inactive | –
Cc1ccc(NC(=O)CSc2ncnc3ccccc23)cc1S(=O)(=O)N1CCOCC1 | inconclusive [cytotoxic, full curve] | –
CCOC(=O)[C@]12CCCC=C1N(Cc1cccc3ccccc13)C(=O)[C@H](CC(=O)NCc1ccc(C)o1)C2 | inconclusive [cytotoxic, single point] | –
CCc1ccccc1N(CC(=O)NCCSCc1ccco1)S(C)(=O)=O | inconclusive [rising, full curve, poor fit] | –
COC(=O)c1ccccc1Sc1c(/C=N/OC(=O)c2ccccc2)c(C(F)(F)F)nn1C | inconclusive [rising, single point] | –
COc1ccc(-c2c[n+]3c(n2-c2ccccc2)SCC3)cc1 | inconclusive [cytotoxic, partial curve, poor fit] | –
CCCc1ccc(C(=O)NNc2ccc(F)cc2)cc1 | active: 7.31 µM | –
COc1ccc2[nH]c(=O)c(C(c3nnnn3C3CCCC3)N3CCN(Cc4ccc5c(c4)OCO5)CC3)cc2c1 (stereo unspecified) | inconclusive [cytotoxic, single point] | –
